# Test results reported in the supplement of paper PMC11055344.
# Assays:
# penicillin G = compound: CC1(C)S[C@@H]2[C@H](NC(=O)Cc3ccccc3)C(=O)N2[C@H]1C(=O)O [penicillin G]; experiment: Broth microdilution.
# amoxicillin = compound: CC1(C)S[C@@H]2[C@H](NC(=O)[C@H](N)c3ccc(O)cc3)C(=O)N2[C@H]1C(=O)O [amoxicillin]; experiment: Broth microdilution.
Test System,MIC (penicillin G),MIC (amoxicillin)
"Streptococcus pneumoniae isolate 281 (PBP alleles 1a 2b 2x: 23_27_77, serotype: 12F)",0.125 mg/L,0.125 mg/L
"Streptococcus pneumoniae isolate 282 (PBP alleles 1a 2b 2x: 2_0_2, serotype: 21)",0.03 mg/L,≤ 0.01 mg/L
"Streptococcus pneumoniae isolate 283 (PBP alleles 1a 2b 2x: 0_0_3, serotype: 35F)",0.03 mg/L,≤ 0.01 mg/L
"Streptococcus pneumoniae isolate 284 (PBP alleles 1a 2b 2x: 2_0_6, serotype: 23A)",0.03 mg/L,0.03 mg/L
"Streptococcus pneumoniae isolate 285 (PBP alleles 1a 2b 2x: New_New_New, serotype: 13)",0.25 mg/L,0.125 mg/L
"Streptococcus pneumoniae isolate 286 (PBP alleles 1a 2b 2x: 1_0_0, serotype: 15B/C)",0.03 mg/L,≤ 0.01 mg/L
"Streptococcus pneumoniae isolate 287 (PBP alleles 1a 2b 2x: 0_4_2, serotype: 6C)",0.03 mg/L,0.03 mg/L
"Streptococcus pneumoniae isolate 288 (PBP alleles 1a 2b 2x: 2_0_0, serotype: 15B/C)",0.03 mg/L,≤ 0.01 mg/L
"Streptococcus pneumoniae isolate 289 (PBP alleles 1a 2b 2x: 2_4_0, serotype: 38)",≤ 0.01 mg/L,≤ 0.01 mg/L
"Streptococcus pneumoniae isolate 290 (PBP alleles 1a 2b 2x: 2_0_0, serotype: 17F)",0.03 mg/L,≤ 0.01 mg/L
"Streptococcus pneumoniae isolate 291 (PBP alleles 1a 2b 2x: 2_6_0, serotype: 11A)",≤ 0.01 mg/L,≤ 0.01 mg/L
"Streptococcus pneumoniae isolate 292 (PBP alleles 1a 2b 2x: 2_3_2, serotype: 3)",0.03 mg/L,0.03 mg/L
"Streptococcus pneumoniae isolate 293 (PBP alleles 1a 2b 2x: 1_0_0, serotype: 9N)",0.03 mg/L,0.03 mg/L
"Streptococcus pneumoniae isolate 294 (PBP alleles 1a 2b 2x: 0_0_3, serotype: 35F)",0.03 mg/L,≤ 0.01 mg/L
"Streptococcus pneumoniae isolate 295 (PBP alleles 1a 2b 2x: 23_4_139, serotype: 19F)",0.06 mg/L,≤ 0.01 mg/L
"Streptococcus pneumoniae isolate 296 (PBP alleles 1a 2b 2x: 2_0_2, serotype: 3)",≤ 0.01 mg/L,≤ 0.01 mg/L
"Streptococcus pneumoniae isolate 297 (PBP alleles 1a 2b 2x: 2_0_2, serotype: 3)",≤ 0.01 mg/L,0.03 mg/L
"Streptococcus pneumoniae isolate 298 (PBP alleles 1a 2b 2x: 7_1_1, serotype: 23B1)",0.125 mg/L,0.03 mg/L
"Streptococcus pneumoniae isolate 299 (PBP alleles 1a 2b 2x: 2_3_2, serotype: 3)",≤ 0.01 mg/L,≤ 0.01 mg/L
"Streptococcus pneumoniae isolate 300 (PBP alleles 1a 2b 2x: 2_0_2, serotype: 15B/C)",≤ 0.01 mg/L,≤ 0.01 mg/L

Test System,MIC (penicillin G),MIC (amoxicillin)
"Streptococcus pneumoniae isolate 301 (PBP alleles 1a 2b 2x: 86_82_162, serotype: Non-typeable/NCC2a)",≤ 0.01 mg/L,≤ 0.01 mg/L
"Streptococcus pneumoniae isolate 302 (PBP alleles 1a 2b 2x: 1_2_2, serotype: 22F)",≤ 0.01 mg/L,≤ 0.01 mg/L
"Streptococcus pneumoniae isolate 303 (PBP alleles 1a 2b 2x: 2_0_3, serotype: 7C)",0.03 mg/L,≤ 0.01 mg/L
"Streptococcus pneumoniae isolate 304 (PBP alleles 1a 2b 2x: 7_12_New, serotype: 11A)",0.25 mg/L,0.25 mg/L
"Streptococcus pneumoniae isolate 305 (PBP alleles 1a 2b 2x: 2_6_0, serotype: 11A)",≤ 0.01 mg/L,≤ 0.01 mg/L
"Streptococcus pneumoniae isolate 306 (PBP alleles 1a 2b 2x: 11_0_0, serotype: 17F)",0.03 mg/L,≤ 0.01 mg/L
"Streptococcus pneumoniae isolate 307 (PBP alleles 1a 2b 2x: 0_6_2, serotype: 16F)",0.03 mg/L,≤ 0.01 mg/L
"Streptococcus pneumoniae isolate 308 (PBP alleles 1a 2b 2x: 1_0_0, serotype: 15A)",0.03 mg/L,≤ 0.01 mg/L
"Streptococcus pneumoniae isolate 309 (PBP alleles 1a 2b 2x: 0_0_148, serotype: 35B)",0.06 mg/L,≤ 0.01 mg/L
"Streptococcus pneumoniae isolate 310 (PBP alleles 1a 2b 2x: 2_0_2, serotype: 15B/C)",0.03 mg/L,≤ 0.01 mg/L
"Streptococcus pneumoniae isolate 311 (PBP alleles 1a 2b 2x: 24_27_28, serotype: 15A)",0.25 mg/L,0.03 mg/L
"Streptococcus pneumoniae isolate 312 (PBP alleles 1a 2b 2x: 78_0_0, serotype: Serogroup 24)",0.03 mg/L,≤ 0.01 mg/L
"Streptococcus pneumoniae isolate 313 (PBP alleles 1a 2b 2x: 2_10_2, serotype: 10B)",0.03 mg/L,0.03 mg/L
"Streptococcus pneumoniae isolate 314 (PBP alleles 1a 2b 2x: 2_6_0, serotype: 11A)",≤ 0.01 mg/L,≤ 0.01 mg/L
"Streptococcus pneumoniae isolate 315 (PBP alleles 1a 2b 2x: 2_0_2, serotype: 21)",0.03 mg/L,≤ 0.01 mg/L
"Streptococcus pneumoniae isolate 316 (PBP alleles 1a 2b 2x: 2_6_0, serotype: 11A)",≤ 0.01 mg/L,≤ 0.01 mg/L
"Streptococcus pneumoniae isolate 317 (PBP alleles 1a 2b 2x: 2_0_6, serotype: 23A)",0.03 mg/L,0.03 mg/L
"Streptococcus pneumoniae isolate 318 (PBP alleles 1a 2b 2x: 1_0_0, serotype: 15B/C)",0.03 mg/L,≤ 0.01 mg/L
"Streptococcus pneumoniae isolate 319 (PBP alleles 1a 2b 2x: 0_0_2, serotype: 10A)",≤ 0.01 mg/L,≤ 0.01 mg/L
"Streptococcus pneumoniae isolate 320 (PBP alleles 1a 2b 2x: 24_27_77, serotype: 15A)",0.25 mg/L,0.125 mg/L

Test System,MIC (penicillin G),MIC (amoxicillin)
"Streptococcus pneumoniae isolate 321 (PBP alleles 1a 2b 2x: 2_6_0, serotype: 11A)",≤ 0.01 mg/L,≤ 0.01 mg/L
"Streptococcus pneumoniae isolate 322 (PBP alleles 1a 2b 2x: 0_0_2, serotype: 15B/C)",0.03 mg/L,≤ 0.01 mg/L
"Streptococcus pneumoniae isolate 323 (PBP alleles 1a 2b 2x: 2_0_2, serotype: 15B/C)",0.03 mg/L,≤ 0.01 mg/L
"Streptococcus pneumoniae isolate 324 (PBP alleles 1a 2b 2x: 0_New_3, serotype: 35F)",0.03 mg/L,≤ 0.01 mg/L
"Streptococcus pneumoniae isolate 325 (PBP alleles 1a 2b 2x: 0_0_0, serotype: 15B/C)",0.03 mg/L,0.03 mg/L
"Streptococcus pneumoniae isolate 326 (PBP alleles 1a 2b 2x: 12_0_0, serotype: 31)",0.03 mg/L,≤ 0.01 mg/L
"Streptococcus pneumoniae isolate 327 (PBP alleles 1a 2b 2x: 0_1_1, serotype: 23B1)",0.125 mg/L,0.06 mg/L
"Streptococcus pneumoniae isolate 328 (PBP alleles 1a 2b 2x: 3_6_5, serotype: 8)",≤ 0.01 mg/L,≤ 0.01 mg/L
"Streptococcus pneumoniae isolate 329 (PBP alleles 1a 2b 2x: 78_0_0, serotype: Serogroup 24)",0.03 mg/L,≤ 0.01 mg/L
"Streptococcus pneumoniae isolate 330 (PBP alleles 1a 2b 2x: 0_0_2, serotype: 35D)",≤ 0.01 mg/L,≤ 0.01 mg/L
"Streptococcus pneumoniae isolate 331 (PBP alleles 1a 2b 2x: 2_0_2, serotype: 15B/C)",0.03 mg/L,≤ 0.01 mg/L
"Streptococcus pneumoniae isolate 332 (PBP alleles 1a 2b 2x: 11_0_172, serotype: 17F)",0.03 mg/L,≤ 0.01 mg/L
"Streptococcus pneumoniae isolate 333 (PBP alleles 1a 2b 2x: 0_0_0, serotype: 23B)",0.03 mg/L,≤ 0.01 mg/L
"Streptococcus pneumoniae isolate 334 (PBP alleles 1a 2b 2x: 7_67_1, serotype: 23B1)",0.25 mg/L,0.06 mg/L
"Streptococcus pneumoniae isolate 335 (PBP alleles 1a 2b 2x: 0_0_3, serotype: 33F)",0.03 mg/L,0.03 mg/L
"Streptococcus pneumoniae isolate 336 (PBP alleles 1a 2b 2x: 2_0_6, serotype: 23A)",≤ 0.01 mg/L,≤ 0.01 mg/L
"Streptococcus pneumoniae isolate 337 (PBP alleles 1a 2b 2x: 0_1_1, serotype: 23B1)",0.125 mg/L,0.03 mg/L
"Streptococcus pneumoniae isolate 338 (PBP alleles 1a 2b 2x: 7_1_1, serotype: 23B1)",0.25 mg/L,0.06 mg/L

# MIC of nasopharyngeal S. pneumoniae isolates by broth microdilution (range and time not stated); higher = less susceptible. No active / inactive call per row; the paper counts penicillin above 0.06 and amoxicillin above 0.5 mg/L as non-susceptible (EUCAST). The lowest value, 0.01, is taken as the floor ('<='); the source prints it plain. Penicillin G is assumed for 'penicillin'. Isolates are numbered anew. PBP alleles are the type numbers of penicillin-binding proteins 1a, 2b and 2x; equal numbers mean equal sequences.
